# The whole screen tested about 43,000 compounds, of which about 200 (0.47%) were called active. Inconclusive results (about 12%) are left out. Calls follow the shape of the dose curve; as a rule, active = well fitted cell-killing curve with a large enough effect; inconclusive = small, poorly fitted or top-dose-only effect, or effect the other way; inactive = flat fitted curve, though single readings scatter. This is one part of the list.
# Experiment: Cell viability qHTS assay in S16 Pmp22-F2sN cells; also: nearly all actives have a fitted effect of over 65% in size
# Conditions: S16 Pmp22-F2sN Schwann cells (luciferase reporters placed in the Pmp22 gene) viability, CellTiter-Glo, 24 h; series mostly up to 57.5 µM; activity change, negative = cytotoxicity: at the top concentration
# In short: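 CellTiter-Glo counter-screen, qHTS, 1536-well. Cells: S16(c9) Pmp22-F2sN, 500-1,000/well in DMEM + 10% FBS. Cpd 23 nL pin transfer, 24 h, 37C/5% CO2. Read: luminescence, CCD imager.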
# % is scaled to controls: 0 for no effect and ±100 for the full control effect.
row,Structure (SMILES),"activity change, negative = cytotoxicity"
1,CC(C)c1ccc(NC(=O)CS(=O)(=O)c2cccc3nsnc23)cc1,inactive: 0.866%
2,CCCCN(CCCC)CCNC(=O)Cn1nc(C)n2c(cc3sccc32)c1=O,inactive: 2.64%
3,COc1ccc(NS(=O)(=O)c2cc(Br)cc3c2N(C(=O)C2CC2)CC3)cc1OC,inactive: -14.3%
4,O=S(=O)(Nc1cc(F)ccc1F)c1ccc2[nH]c3c(c2c1)CCCC3,inactive: -1.81%
5,NS(=O)(=O)c1ccc(CCNc2nccn(-c3cccc(C(F)(F)F)c3)c2=O)cc1,inactive: -29.5%
6,CSc1nc2c(c(=O)[nH]1)C(c1cccc(F)c1F)CC(=O)N2 (stereo unspecified),inactive: -2.18%
7,CC(C)(C)C(=O)Nc1ccc2nc(SCC(=O)N3CCOCC3)sc2c1,inactive: 3.89%
8,Cc1cc2nc(-c3ccc(OCc4ccccc4Cl)cc3)cc(C(F)(F)F)n2n1,inactive: 11.8%
9,COc1ccccc1NC(=O)Cn1c(SCC(=O)N(C)c2ccccc2)nc2ccccc21,inactive: 15.6%
10,Cc1ccc(NS(=O)(=O)c2ccc3c(c2)n(C)c(=O)n3C)cc1C,inactive: -1.42%
11,Cc1ccc(S(=O)(=O)NC2(C(F)(F)F)NC(=O)N(CCc3ccccc3)C2=O)cc1 (stereo unspecified),inactive: 16.7%
12,COc1cccc2c1cc1c(=O)n(CC(=O)N3CCN(c4ccc(Cl)cc4)CC3)nc(C)n12,inactive: -2.41%
13,Fc1ccc(Nc2ncnc3onc(-c4cccc(Cl)c4)c23)c(F)c1,inactive: 0.704%
14,Cn1c(=O)c2c(-c3cccc(Br)c3)n(C(C)(C)CO)cc2n(C)c1=O,inactive: -2.31%
15,CCC(C(=O)NCc1ccco1)n1nc(C)c2c(C)n(-c3ccc(C)cc3)nc2c1=O (stereo unspecified),inactive: -6.32%
16,Cc1cccc(C(=O)NCC(=O)OCc2cc(=O)n3nc(CC(C)C)sc3n2)c1,inactive: 12.7%
17,COc1cccc(C(=O)N2CCN(CCc3ccncc3)CC2)c1,inactive: 2.53%
18,CN(C)c1ccc(CNC(=O)c2cccc(NC(=O)N3CCSc4ncccc43)c2)cc1,inactive: -14.9%
19,O=C(Nc1ccccc1Cl)C1CCN(c2nc3ccccc3nc2C(F)(F)F)CC1,inactive: -0.203%
20,O=C(NCCn1cc(SCc2ccccc2Cl)c2ccccc21)c1cccs1,inactive: -3.08%
21,CCOc1ccccc1NC(=O)CSc1nnc2[nH]c(=O)cc(-c3ccccc3)n12,inactive: -5.84%
22,COc1ccc(NC(=O)Cn2cnc3sc(C)c(S(=O)(=O)N4CCN(c5ccccc5OC)CC4)c3c2=O)cc1OC,inactive: 3.68%
23,CCC1CN(C(=O)NCc2ccc(C)cc2)c2cc(Cl)ccc2O1 (stereo unspecified),inactive: -8.59%
24,CCN1CCN(Cc2nc3cc(NC(=O)c4cc(OC)c(OC)c(OC)c4)ccc3n2CC)CC1,inactive: 7.08%

row,Structure (SMILES),"activity change, negative = cytotoxicity"
1,Cc1ccc(CNC(=O)N2CCC(CN3CCC(C)CC3)CC2)cc1,inactive: 3.17%
2,COc1ccc(S(=O)(=O)n2nc(-c3ccco3)nc2NCc2ccc(N(C)C)cc2)cc1,inactive: -16.9%
3,COc1ccc(S(=O)(=O)c2cn(CC(=O)Nc3cc(C)ccc3C)c3ccccc3c2=O)cc1,inactive: 20.9%
4,Cc1ccc(C)c(N2CCN(C(=O)Cn3ncc4c(=O)oc5ccccc5c43)CC2)c1,inactive: 6.74%
5,COc1cc(OC)cc(-c2nc3nc(C)c(CCC(=O)Nc4ccc(C)c(C)c4)c(C)n3n2)c1,inactive: 26.6%
6,CCc1ccccc1NC(c1nnc(-c2cccc(F)c2)o1)c1ccc(F)cc1Cl (stereo unspecified),inactive: 3.06%
7,CC(C)c1ccc(NC(=O)CN2C(=O)COc3ccc(S(=O)(=O)N4CCCCC4)cc32)cc1,inactive: -14.4%
8,Cc1ccc2scc(N3CCc4ccccc4C3)c(=O)c2c1,inactive: -5.15%
9,Cc1ccc(-n2nc3c(=O)n(CCCC(=O)NCc4ccccc4C)nc(C)c3c2C)cc1,inactive: 3.11%
10,COCCNC(=O)c1c(-c2ccccc2)c(-c2ccccc2)nn(C)c1=O,inactive: -6.01%
11,Cc1ccc([N+](=O)[O-])cc1S(=O)(=O)N1CCn2cccc2C1c1ccccc1F (stereo unspecified),inactive: 1.82%
12,O=C(NCc1cccn1Cc1ccccc1)Nc1cccc(C(F)(F)F)c1,inactive: -9.63%
13,CCOC(=O)c1c(C)c(-c2ccccc2)n(CC(=O)NCc2cccc(OC)c2)c1C,inactive: 13.5%
14,Cn1c(=O)oc2cc(S(=O)(=O)N3CCC(C(=O)NCc4ccccc4)CC3)ccc21,inactive: -2.49%
15,CN(Cc1ccc(F)cc1)S(=O)(=O)c1nnc(NC(=O)c2ccccc2Br)s1,inactive: -16.6%
16,O=C(Cn1c(=O)n(Cc2ccc(Cl)cc2)c(=O)c2cccnc21)Nc1ccccc1C(F)(F)F,inactive: 22.2%
17,Cc1ccc(NC(=O)CNC(=O)Cn2c(C)cc3ccccc3c2=O)cc1F,inactive: 0.689%
18,CCOC(=O)c1cnc2cc(C(F)(F)F)ccc2c1N1CCN(c2cccc(Cl)c2)CC1,inactive: 3.57%
19,CCOc1cc(CNC(=O)c2ccc(Cn3c(=O)c4cccn4c4cccnc43)cc2)ccc1OC,inactive: 8.74%
20,Cc1ccc(NC(=O)CSc2nc3ccc(NC(=O)c4cccs4)cc3s2)cc1,inactive: 12.5%
21,CCOc1cccc(C2c3[nH]c4ccccc4c3CCN2C(=O)c2ccccc2F)c1 (stereo unspecified),inactive: 3.42%
22,CC(=O)c1ccc(NC(=O)Cn2cnc3nc4c(cc3c2=O)CC(C)CC4)cc1 (stereo unspecified),inactive: -13.3%
23,CCOc1ccccc1C(=O)Nc1ccc(S(=O)(=O)Nc2onc(C)c2C)cc1,inactive: 8.06%
24,CCOC(=O)c1c(SCC(=O)Nc2nc3ccccc3s2)nc(=O)[nH]c1C,inactive: 0.426%

row,Structure (SMILES),"activity change, negative = cytotoxicity"
1,CCC(Sc1nnc(C)n2c1cc1sccc12)C(=O)Nc1ccccc1F (stereo unspecified),inactive: -10.9%
2,CCCCC(=O)Oc1ccc2oc(-c3ccc(OC)cc3)cc(=O)c2c1,inactive: 5.37%
3,Cc1cccc(-c2nc3scc(CCNS(=O)(=O)c4c(C)noc4C)n3n2)c1,inactive: 4.18%
4,Cc1ccc(S(=O)(=O)c2nnn3c2nc(NC(C)c2ccccc2)c2sccc23)cc1 (stereo unspecified),inactive: -7.25%
5,O=C(NCc1cccn1Cc1ccccc1)Nc1ccc(Br)cc1F,inactive: -3.18%
6,COc1cccc(N2CCN(c3ncnc4c3c(-c3ccccc3)cn4-c3ccc(C)cc3)CC2)c1,inactive: 15.6%
7,CCCc1cc(=O)[nH]c2nnc(SCC(=O)Nc3ccc(OC)cc3)n12,inactive: -4.44%
8,O=C(Nc1ccccc1C(=O)OCc1cc(=O)n2ccsc2n1)c1ccc(Cl)cc1,inactive: 10.9%
9,COc1ccccc1CNC(=O)CCNS(=O)(=O)c1ccc2c(c1)CCCC(=O)N2,inactive: 22.9%
10,CCOC(=O)c1c(C)[nH]c(C)c1S(=O)(=O)NCC(=O)NCc1ccc(C)cc1,inactive: 18.2%
11,Cc1ccc(Cl)cc1NC(=O)Nc1nnc(N2CCCC(C)C2)s1 (stereo unspecified),inactive: -1.06%
12,CCOc1ccc(N2CC(NC(=O)c3ccc(S(=O)(=O)N4CCCC4)cc3)CC2=O)cc1 (stereo unspecified),inactive: -0.772%
13,Cc1ccc(-c2n[nH]c3c2C(c2cccc(O)c2)N(c2ccc(C(=O)O)cc2)C3=O)cc1 (stereo unspecified),inactive: 12%
14,CCN(CC)CCNC(=O)c1ccc(CSc2nc3ccncc3n2Cc2cccc(F)c2)cc1,inactive: -5.43%
15,CCOc1ccc(-c2cc3c(=O)n(Cc4nc(-c5ccc(OC(C)C)cc5)oc4C)ccn3n2)cc1Cl,inactive: 3.36%
16,Cc1ccccc1-c1nc(CN2CCC(C(=O)NCCc3ccccc3)CC2)c(C)o1,inactive: 12.8%
17,O=C(CCCn1c(=O)c2ccccc2n(CC(=O)Nc2cccc(C(F)(F)F)c2)c1=O)NCc1ccc2c(c1)OCO2,inactive: 1.47%
18,O=C(Cn1nc(N2CCN(c3ccccc3)CC2)ccc1=O)Nc1ccc(F)cc1F,inactive: -8.49%
19,COc1ccc(CNC(=O)C2CCCN(C(=O)N3CCOc4ccccc43)C2)cc1 (stereo unspecified),inactive: -1.93%
20,COc1cc(C2SC[C@H]3C(=O)N(c4ccccc4)C(=O)N23)cc(OC)c1OC (stereo partly specified),inactive: 3.22%
21,Cc1cc2ccccc2n1CCNC(=O)c1cc(C(F)(F)F)cc(C(F)(F)F)c1,inactive: 3.03%
22,COCCn1c(SCC(=O)c2ccc(C)cc2C)nc2cc(C(=O)NC3CCCC3)ccc2c1=O,inactive: 25.1%
23,Cn1nnc2c(N3CCN(c4ccccc4)CC3)ncnc21,inactive: -12.5%
24,CC(C)c1ccc(NC(=O)c2cc(S(=O)(=O)N3CCCCC3)cn2C)cc1,inactive: 6.57%

row,Structure (SMILES),"activity change, negative = cytotoxicity"
1,COc1ccccc1CNc1nc2ccc(Cl)cc2n2cnnc12,inactive: -0.392%
2,CC(=O)c1c(C)oc2c(Br)cc(NS(=O)(=O)c3ccc(Br)cc3)cc12,inactive: 8.87%
3,Cc1ccccc1OC(=O)CSc1nnc(-c2ccc3c(c2)OCO3)o1,inactive: -5.31%
4,Cc1ccc(Cl)cc1N1CCN(C(=O)C2CCN(S(=O)(=O)c3cccc4nonc34)CC2)CC1,inactive: -0.441%
5,COC(=O)c1cc(NC(=O)c2nn(C)c3c2CSc2ccccc2-3)cc(C(=O)OC)c1,inactive: 10.8%
6,CC(C)COc1ccc(C2=NC(c3ccncc3)=Nc3ccc(F)cc3N2)cc1,inactive: -7.21%
7,CCOc1ccc(-n2c(=O)c3c(C)c(C(=O)N(C)C)sc3n(CC(=O)Nc3c(C)cc(C)cc3C)c2=O)cc1,inactive: -0.248%
8,Cc1cccc(NC(=O)CSc2nc3c([nH]c4ccccc43)c(=O)n2C)c1,inactive: 11.3%
9,Cc1ccc(CN(C(=O)COc2ccc(C)c(C)c2)C2CCS(=O)(=O)C2)o1 (stereo unspecified),inactive: -4.03%
10,CCOc1ccc(S(=O)(=O)N2CCN(c3ccccc3)CC2)cc1C(N)=O,inactive: 1.87%
11,CC(C)N(C(=O)Cn1cc(S(=O)(=O)Cc2ccc(C(F)(F)F)cc2)c2ccccc21)C(C)C,inactive: -3.47%
12,Cc1ccc(Nc2c(-c3ccccc3O)nc3ccc(Br)cn23)cc1,inactive: -2.65%
13,COc1ccc(S(=O)(=O)Nc2cc(-c3cn4ccccc4n3)ccc2C)cc1,inactive: 0.967%
14,Cc1ccc(CC(=O)Nc2c(C(=O)N3CCN(c4ccccc4F)CC3)oc3ccccc23)cc1,inactive: -6.43%
15,CCc1cccc(CC)c1NC1=NS(=O)(=O)c2ccccc21,inactive: -13.4%
16,CCOc1ccccc1NC(=O)C(C)Sc1nc2c(c(=O)[nH]1)CCCC2 (stereo unspecified),inactive: -9.9%
17,Cc1ccc(NS(=O)(=O)c2ccc3c(c2)NC(=O)CCS3)c(Br)c1,inactive: 0.637%
18,Cc1nn(C)c2c1c(C(F)(F)F)cc(=O)n2CC(=O)NCc1ccccc1Cl,inactive: 8.77%
19,Cc1cc(F)ccc1NC(=O)c1sc2nc(-c3cccs3)ccc2c1N,inactive: 18.8%
20,CN1C(C(=O)Nc2ccc(F)cc2F)=CC(c2cccs2)=NS1(=O)=O,inactive: -6.42%
21,CCn1nc(-c2ccccc2)c(-c2ccccc2)c(C(=O)OCCOC)c1=O,inactive: 0.453%
22,Cc1ccc2c(=O)cc(C(=O)Nc3nnc(C)s3)oc2c1,inactive: 0.893%
23,CCOC(=O)C1=C(CN2CCC(C(=O)OCC)CC2)NC(=O)NC1c1ccc(Cl)cc1 (stereo unspecified),inactive: -2.69%
24,CCOC(=O)c1ccccc1NC(=O)CCc1c(C)nc2ncnn2c1C,inactive: 5.48%
